PubChem BioAssay AID686971 (National Center for Advancing Translational Sciences (NCATS), 2013)
About 7,500 (2.1%) of roughly 360,000 compounds were called active. This list was built around the results that the source calls inconclusive (neither active nor inactive); the mix of calls is not that of the screen. Calls follow the shape of the dose curve; as a rule, active = well fitted cell-killing curve with a large enough effect; inconclusive = small, poorly fitted or top-dose-only effect, or effect the other way, or another doubt; inactive = no such curve, though single readings can be large or run the other way. No potency is given beside an inconclusive call; the fits are too rough.

Test: qHTS for induction of synthetic lethality in tumor cells producing 2HG: qHTS for the HT-1080-IDH1KD cell line;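 as to activity, negative = toxicity: 0% = DMSO wells and -100% = cell-free medium wells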
Conditions: HT-1080 IDH1 knockdown viability, ATP luminescence, 48 h; activity, negative = toxicity: at 46.1 µM (top of the series) unless noted
How it was run: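 Luminescent ATP read-out (CellTiter-Glo, 10 min at room temperature) after 48 h compound exposure at 37 °C gave viability of IDH1-knockdown HT-1080 cells. Activity was normalised to DMSO and cell-free wells, then fitted as concentration-response curves.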
Potency is read from the fitted curve at half-maximal effect; tags tell the direction and shape of the fitted curve.

Compound | Potency | activity, negative = toxicity
Cc1nc(-c2ccc(C(=O)Nc3cccc(Br)c3)cc2)cs1 | inconclusive [cytotoxic, full curve] | –
Cc1ccc2c(c1)c(C)c(C)n2CC(O)Cn1nnc2ccccc21 (centres undefined) | inconclusive [cytotoxic, single point] | –
NS(=O)(=O)c1ccc(NC(=O)CSc2cn[nH]n2)cc1 | inactive | –
O=C(Sc1ccc(Cl)cc1)c1ccccn1 | active: 23.1 µM | –
CC(C)C[C@H](NC(=O)c1[nH]cnc1C(=O)Nc1ccc(CNC(=O)OC(C)(C)C)cc1)C(=O)OC(C)(C)C | active: 18.4 µM | –
COc1ccccc1-n1c(SCC(=O)N2CCOCC2)nc2ccccc2c1=O | inactive | –
Cc1ccc(C(=O)NNC(=O)c2ccc3ccccc3c2O)cc1 | inconclusive [cytotoxic, partial curve] | –
Cc1ccc(S(=O)(=O)c2c(N)n(Cc3ccco3)c3nc4ccccc4nc23)cc1C | inconclusive [cytotoxic, single point] | –
C/C(=N\NC(=O)COc1ccc(C(C)(C)C)cc1)c1ccccc1 | inconclusive [cytotoxic, single point] | –
O=C(Cc1ccc(N2CCNC2=O)cc1)N1CCCC(Nc2ccc(F)c(F)c2)C1 (centres undefined) | active: 2.91 µM | –
Cc1ccc(NC(=O)CN2c3cccc4cccc(c34)S2(=O)=O)cc1 | inactive | –
CC(C)c1ccc(NC(=O)[C@H](NC(=O)[C@@H]2Cc3ccccc3CN2)c2ccccc2)cc1 | inconclusive [cytotoxic, single point] | –
Cc1cccc(C(=O)N2CCC(=O)N(C(COCc3ccccc3)Cc3ccccc3)CC2)c1 (centres undefined) | inactive | –
CC(C)=CCN1CCN(Cc2ccc(C#CC(C)(C)O)s2)CC1CCO (centres undefined) | inactive | –
COC(=O)C1CN(C(=O)COc2cccc(C)c2C)c2ccccc2O1 (centres undefined) | inactive | –
Cc1ccsc1CNCC(O)c1ccccc1 (centres undefined) | – | inconclusive: 30.1%
COc1ccc(COC(=O)C2=C(C)NC(=O)NC2c2cc(OC)ccc2OC)cc1 (centres undefined) | inactive | –
COc1cccc(CNC(=O)C2CCC(CNc3nc(=S)[nH]c4ccccc34)CC2)c1 (centres undefined) | – | inconclusive: -7.48% [cytotoxic]
CCOC(=O)c1cnc2ccc(C)cc2c1Sc1ccccc1C(=O)OC | inconclusive [cytotoxic, single point] | –
O=C(Cc1ccc(Cl)cc1)Nc1ccc(-c2cc3ccccc3oc2=O)c(Cl)c1 | active: 6.51 µM | –
COc1ccc(/C=C/C(=O)O)cc1 | inactive | –
Nc1nc(-c2ccco2)nn1C(=O)c1ccccc1Cl | inconclusive [rising, single point] | –
O=c1cc(-c2ccccc2)oc2ccc(Cl)cc12 | inconclusive [rising, partial curve] | –
COCCNC(=S)N1CCN(c2nc(-c3ccc(Cl)cc3)cs2)CC1 | inactive | –
Cc1ccc(C(=O)N/C(=C\c2ccc(-c3ccc(Cl)cc3)o2)C(=O)NCCCN(C)C)cc1 | active: 13 µM | –

Compound | Potency | activity, negative = toxicity
Cc1ccc(NC(=S)NCc2cccn2C)cc1 | inconclusive [cytotoxic, single point] | –
CN1CCN(Cc2ccc(-c3ccc(Cl)cc3)o2)CC1 | inconclusive [cytotoxic, single point] | –
COc1ccc(C=NNC(=O)CCCC(=O)NN=Cc2ccc(OC)c(OC)c2)cc1OC | inactive | –
Cc1ccc(S(=O)(=O)N2CCOCC2)cc1NC(=O)CSCc1c(C)noc1C | inactive | –
COc1ccc(-n2nnnc2SCC(=O)NCCc2ccc(OC)c(OC)c2)cc1 | inactive | –
CCOC(=O)N1CCN(C(=O)CSCC(=O)Nc2nc(-c3ccc(Cl)s3)cs2)CC1 | inconclusive [cytotoxic, single point] | –
CC(=O)Nc1cccc(Nc2nc(-c3cccs3)nc3ccccc23)c1 | inconclusive [cytotoxic, partial curve] | –
CN(C(=O)c1ccc(Oc2ccc([N+](=O)[O-])cc2)cc1)C1CCCCC1 | inactive | –
O=C(NNC(=O)C12CC3CC(CC(C3)C1)C2)c1ccccn1 | inconclusive [cytotoxic, partial curve] | –
O=S(=O)(c1ccc(F)cc1)c1snnc1-c1ccccc1 | inconclusive [cytotoxic, partial curve, poor fit] | –
O=c1c2ccccc2nc2ccc(NCc3cccs3)nn12 | inactive | –
O=C(NC1CCCC1)c1cc(COc2ccc3ncccc3c2)on1 | inconclusive [cytotoxic, single point] | –
Oc1cccc(Nc2ncnc3c2oc2ccccc23)c1 | inconclusive [cytotoxic, single point] | –
C[C@@H]1CC[C@]2(C(=O)O)CC[C@]3(C)C(=CCC4[C@]56CC[C@@](O)(OC5)C(C)(C)C6CC[C@]43C)C2[C@H]1C (some centres undefined) | inconclusive [cytotoxic, partial curve] | –
COC(=O)[C@@H]1[C@@H](C#N)C2(c3ccccc3-c3ccccc32)N(c2ccc(Cl)cc2)N1C#N | active: 23.1 µM | –
CCN1C=C(Cc2ccccc2C)C2=C(C1)C(c1ccccc1C)C(C#N)=C(N)O2 (centres undefined) | inconclusive [cytotoxic, single point] | –
O=C(Nc1cccc(-c2cccc(Cl)c2)c1)C1CCN(Cc2ccc(CO)o2)CC1 | active: 16.4 µM | –
CCOCCCNC(=S)N1CCN(c2nc(-c3ccccc3)cs2)CC1 | inconclusive [cytotoxic, single point] | –
C/C(=N\NC(=O)c1ccc(CN2CCc3ccccc3C2)cc1)c1ccccc1O | active: 20.6 µM | –
CNc1sc(C(=O)c2cccs2)c(N)c1-c1nc2ccccc2s1 | inconclusive [cytotoxic, single point] | –
O=C1NCCN1Cc1cccc(Cl)c1 | inactive | –
Cc1ccc(S(=O)(=O)NC2(C(F)(F)F)NC(=O)N(c3ccccc3F)C2=O)cc1 (centres undefined) | inactive | –
CC(C)NCC(=O)NC12CC3CC(CC(C3)C1)C2 | inactive | –
CC(C)(C)c1csc(NC(=O)Cc2ccc(S(=O)(=O)N3CCOCC3)s2)n1 | inconclusive [cytotoxic, partial curve] | –
